Results reported in PubChem BioAssay AID485344 (National Center for Advancing Translational Sciences (NCATS), 2010).
In all, about 340,000 compounds went through this assay and about 6,900 (2%) were called active. Rule as the data show it: active = inhibition above about 30%; inactive = below that, where a call was filed. The list shows a part of the results, in another mix than the full data. The source gives no active or inactive call for entries shown without one.

Molecular target: D(2) dopamine receptor (Homo sapiens) (UniProt P14416)
Chain of UniProt P14416 (P14416 whole entry, looked up): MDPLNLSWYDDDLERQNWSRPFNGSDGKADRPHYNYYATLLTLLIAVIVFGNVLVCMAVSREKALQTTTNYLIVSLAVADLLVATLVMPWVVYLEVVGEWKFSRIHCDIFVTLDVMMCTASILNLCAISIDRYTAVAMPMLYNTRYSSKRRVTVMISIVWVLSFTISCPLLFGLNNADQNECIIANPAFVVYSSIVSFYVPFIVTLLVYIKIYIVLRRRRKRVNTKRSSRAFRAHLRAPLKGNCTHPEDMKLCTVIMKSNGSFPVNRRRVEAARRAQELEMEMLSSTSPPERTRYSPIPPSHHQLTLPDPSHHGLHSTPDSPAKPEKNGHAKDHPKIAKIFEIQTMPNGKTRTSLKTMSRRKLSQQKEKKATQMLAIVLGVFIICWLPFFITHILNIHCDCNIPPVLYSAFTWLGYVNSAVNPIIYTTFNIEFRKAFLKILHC
Test: HTS Assay for Allosteric Antagonists of the Human D2 Dopamine Receptor: Primary Screen for Antagonists; also: 0% is about no effect
Conditions: HEK293 TREx D2 cells, calcium flux, dopamine EC80; at 10 µM; stronger effect = higher value
Method in brief: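 Dopamine at EC80 is the agonist stimulus; test compounds precede it by 180 s. Calcium flux read kinetically in a force-coupled, inducible HEK293 T-REx D2 cell line.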

Row | Structure (SMILES) | inhibition
1 | COc1nc(-c2ccccc2)ccc1-c1noc(-c2ccccc2Br)n1 | -2.97%
2 | CCC(C)Nc1oc(-c2ccc(COc3ccc(Cl)cc3)o2)nc1C#N (stereo not given) | -5.39%
3 | O=C(Nc1ccc(OCc2cc(=O)n3ccccc3n2)cc1)c1ccccc1Cl | 4.12%
4 | COc1ccc(-n2nc(C(=O)N3CCN(c4ccc(F)cc4)CC3)c3ccccc3c2=O)c(OC)c1 | active: 34.4%
5 | CCc1ccc(CN(Cc2ccco2)C(=O)COc2ccc(Cl)c(C)c2)cc1 | 15.2%
6 | CCn1cc(C(=O)NCc2ccc(C)cc2)c(=O)c2cc(S(=O)(=O)N(C)C3CCCCC3)ccc21 | -9.6%
7 | CCC(C)NC(=O)CSc1nc2c(sc3ccccc32)c(=O)n1CCc1ccc(OC)c(OC)c1 (stereo not given) | 15.7%
8 | CCN(CC)c1nc2c(S(=O)(=O)c3cccc(Cl)c3)nnn2c2ccsc12 | 7.37%
9 | COc1ccc(S(=O)(=O)c2c(SC)nn(CC(=O)Nc3cccc(C)c3C)c2N)cc1 | 5.98%
10 | Cc1ccc(-c2nc(CS(=O)(=O)CC(=O)NCCc3ccccc3)c(C)o2)cc1 | 16.2%
11 | Cc1ccc2c(c1)NC(=O)c1cccnc1O2 | 0.806%
12 | COc1ccc(N2CCN(C(=O)CSc3nnnn3C3CC3)CC2)cc1 | active: 31.8%
13 | COc1ccc(CNC(=O)Cn2nc(N3CCN(c4ccccc4)CC3)ccc2=O)c(OC)c1 | 9.69%
14 | CCCCn1c(NCc2cc(Br)ccc2O)nc2ccccc21 | 3.06%
15 | COC(=O)c1c(-c2cccs2)csc1NC(=O)c1ccc(OC)c(OC)c1 | 2.91%
16 | CCNC(=O)C1CCN(c2nnc(C)c3c(C)n(-c4ccc(OC)cc4)nc23)CC1 | -2.3%
17 | Cc1cccc(NC(c2ccccc2C)c2ccc3ccc(C)nc3c2O)n1 (stereo not given) | -21.6%
18 | O=C(OCn1nnc2ccccc2c1=O)c1cc2ccccc2o1 | active: 68.6%
19 | CC(=O)c1ccc(OCC(O)CN(C)CCOc2ccc(Br)cc2)cc1 (stereo not given) | active: 43.8%
20 | Cc1cc(C)n(-c2nc3cc(Cl)ccc3nc2Nc2ccc(CC(=O)O)cc2)n1 | 5.46%
21 | COc1ccc2nc(NC(=O)c3nc(SCc4ccccc4F)ncc3Cl)sc2c1 | -10.8%
22 | CCn1c(SCC(=O)c2ccccc2)nnc1-c1cccc(Cl)c1 | 16.7%
23 | Cc1ccc(/C=C/c2onc(C)c2S(=O)(=O)N2CCC(C(=O)NCc3ccc(OC(C)C)cc3)CC2)cc1 | -22%
24 | O=C(Cn1c(-c2cccs2)cc2cc(F)ccc21)NCCCN1CCN(c2ccc(F)cc2)CC1 | -7.76%

Row | Structure (SMILES) | inhibition
25 | COc1cccc(CNCCSc2nnnn2-c2ccccc2)c1OC | 27.8%
26 | COc1ccc(-c2c(C)c3ccc(O)c(CN4CCCC4)c3oc2=O)cc1 | -7.13%
27 | Cc1ccc(CNC(=O)c2ccccc2NC(=O)c2nsc3ccccc23)cc1 | 2.74%
28 | CC(=O)N1CCC(N2CCN(c3ccccc3F)CC2)CC1 | active: 71.4%
29 | Cc1cccc(C)c1NC(=O)CN1C(=O)C2CC=CCC2C1=O (stereo not given) | active: 56.9%
30 | COc1ccc(OCC(=O)NCC(c2ccc(OC)cc2)N2CCOCC2)cc1 (stereo not given) | -11.8%
31 | Cc1ccc(C)c(N2CCN(C(=O)CS(=O)(=O)c3cccc4nsnc34)CC2)c1 | 22%
32 | Cc1cc(NC(=O)C(C)(C)C)cc(-c2nc3ncccc3o2)c1O | -10.5%
33 | CC(=O)/C(C[N+]1(C)CCCCC1)=N\O | active: 44.1%
34 | Cc1cccc(N2CCN(C(=O)CN3C(=O)COc4ccc(S(=O)(=O)N5CCCC5)cc43)CC2C)c1 (stereo not given) | 17.1%
35 | Cc1cccc2sc(N(Cc3cccnc3)C(=O)C3COc4ccccc4O3)nc12 (stereo not given) | 7.76%
36 | Cc1ccc(CNC(=O)CN2C(=O)C3(SCC(=O)N3c3ccc(F)c(F)c3)c3ccccc32)cc1 (stereo not given) | -1.76%
37 | COc1ccc(-c2nc(Cn3c(SCc4ccccc4F)nc4cccnc43)c(C)o2)cc1 | -16.9%
38 | COc1cc(C(=O)NCC(=O)N/N=C/c2ccc(-c3cccc([N+](=O)[O-])c3)o2)cc(OC)c1OC | active: 50.1%
39 | COC(=O)c1c(NC(=O)c2ccc(S(=O)(=O)N(C)C3CCCCC3)cc2)sc2c1CCN(C)C2 | 10.4%
40 | COC(=O)c1ccccc1NC(=O)C1CCCN(c2nnc(C)c3c(C)n(-c4ccccc4)nc23)C1 (stereo not given) | -19.9%
41 | CCOC(=O)C(Cc1ccccc1)NC(=O)CCc1c(C)nc2c(c(C)nn2-c2ccc(C)c(C)c2)c1C (stereo not given) | -12.4%
42 | O=C(CN1C(=O)CCc2cc(S(=O)(=O)N3CCCCC3)ccc21)NCc1ccc(Cl)cc1 | 5.98%
43 | CCc1ccc(NC(=O)CSc2ncc(S(=O)(=O)c3cc(C)ccc3C)c(=O)[nH]2)cc1 | 10.1%
44 | Cc1cc(C(=O)NCCCn2ccnc2)sc1-c1ccccc1 | active: 47.3%
45 | COc1ccc(NC(=O)Nc2nnc(-c3ccccc3F)s2)cc1 | active: 41.3%
46 | CC1CCN(c2nc3ccc(C(=O)NCCc4ccc(S(N)(=O)=O)cc4)cc3s2)CC1 | 9.32%
47 | O=C(Cn1c(=O)oc2cc(S(=O)(=O)N3CCCCC3)ccc21)NCc1ccc(F)cc1 | -1.65%
48 | O=C(NCc1ccccc1Cl)c1nnc(Cc2ccc(Cl)cc2)o1 | 7.33%

Row | Structure (SMILES) | inhibition
49 | Cc1cccc(CSc2ccc(-c3cccs3)nn2)c1 | 0.616%
50 | COc1ccc(-c2nc(SCC(=O)NCCc3ccccc3)n[nH]2)cc1 | -0.36%
51 | COc1ccc(-c2noc(CSc3nnc(C)n3-c3ccc(C)c(C)c3)n2)c(OC)c1 | -2.44%
52 | Cc1ccc2onc(CC(=O)N3CCN(c4ccccc4)CC3)c2c1 | 12.1%
53 | N#C/C(=C\c1cc(Br)c(O)c(Br)c1)c1nc2ccccc2c(=O)[nH]1 | -6.39%
54 | CCc1ccc(OCC(=O)Nc2ccc3c(c2)c2ccccc2n3CC)c(Br)c1 | 12.6%
55 | CCOc1ccc(NC(=O)C(C)n2c(=O)cc(C)c3c(C)nn(-c4ccccc4)c32)cc1 (stereo not given) | 11.4%
56 | CCc1ccc(N(CC)C(=O)Cn2cnc3sc(C)c(S(=O)(=O)N4CCN(c5ncccn5)CC4)c3c2=O)cc1 | -10.2%
57 | Cc1ccc(C)c(OCC(=O)N(Cc2nnc(-c3ccccc3Cl)o2)C2CC2)c1 | active: 33.4%
58 | CCCOc1ccccc1C1C(C(=O)Nc2ccccc2)=C(C)Nc2nnnn21 (stereo not given) | 26.1%
59 | CCCC1=Nc2cc(C(=O)NCCOC)ccc2Sc2ccccc21 | -5.24%
60 | Cc1cccc(S(=O)(=O)c2cn(C)c3cc(N4CCC(C)CC4)c(F)cc3c2=O)c1 | 3.16%
61 | C#CCNC(=O)/C=C/c1ccc(C)cc1 | active: 39.7%
62 | CC(=O)Nc1ccc(NC(=O)c2cc(-c3ccc4c(c3)OCCO4)on2)cc1 | -11%
63 | CCC(=O)N1c2ccc(S(=O)(=O)CCC(=O)NCc3cccc(OC)c3)cc2CC1C (stereo not given) | 4.14%
64 | COc1ccccc1CNC(=O)Cn1c(=O)nc(-c2ccccc2)c2ccccc21 | 3.76%
65 | COc1ccc(-c2nc(CN3CCC(c4ccccc4)CC3)c(C)o2)cc1OC | active: 44.3%
66 | CCCSc1nnc2c(n1)OC(c1cccs1)Nc1ccc(Br)cc1-2 (stereo not given) | 4.57%
67 | COC(=O)c1ccc(NC(=O)CN(Cc2ccccc2)S(=O)(=O)c2ccc(Cl)cc2)cc1 | -24.2%
68 | Oc1c(C(c2ccccc2F)N2CCCC2)sc2nc(-c3ccco3)nn12 (stereo not given) | -23.8%
69 | Cc1c(Cl)cccc1NC(=O)Nc1ccc2snnc2c1 | -6.12%
70 | O=C(NCCc1ccccc1)c1ccc(CS(=O)(=O)c2ccc(Cl)cc2)o1 | 4.27%
71 | CCN(C1CCCCC1)S(=O)(=O)c1ccc(S(=O)(=O)NCCc2ccncc2)cc1 | active: 32.2%
72 | COC(=O)c1ccc2c(=O)n(CCCCCC(=O)N3CCN(c4ccc(Cl)cc4)CC3)c(=O)[nH]c2c1 | -7.89%

Row | Structure (SMILES) | inhibition
73 | Cc1ccc(CCNC(=O)CCn2nc(-c3ccc(C)cc3)ccc2=O)cc1 | -5.71%
74 | CCN(CC)CCSc1nnc2c3cc(F)ccc3n(CC)c2n1 | -0.733%
75 | COc1cccc(C(=O)n2nc(-c3cccnc3)nc2NCc2ccc(F)cc2)c1 | 10.8%
76 | COC(=O)c1ccc(CNC(=O)c2ccc(S(=O)(=O)N(C)c3ccccc3OC)cc2)cc1 | active: 48.6%
77 | Cc1ccc(NC(c2nnc(-c3ccccc3)o2)c2ccccc2F)c(Cl)c1 (stereo not given) | 4.76%
78 | COCC(=O)Nc1c(C(=O)Nc2ccc(C)cc2)oc2ccccc12 | 16.2%
79 | CCOc1ccc(S(=O)(=O)N(CC(=O)Nc2ccc3c(c2)OCO3)c2ccc(C)cc2)cc1 | 4.2%
80 | Cc1ccc2oc(-c3ccc(C)c(NC(=O)c4ccc(-c5ccccc5[N+](=O)[O-])o4)c3)nc2c1 | -1.3%
81 | CCn1cc(S(=O)(=O)c2ccc(Cl)cc2)c(=O)c2cc(F)c(N3CCOCC3)cc21 | 12.9%
82 | Cc1ccc(CNC(=O)CN2C(=O)CCc3cc(S(=O)(=O)N4CCCCC4)ccc32)cc1 | -4.09%
83 | CCN(CC)S(=O)(=O)c1ccc(N2CCCCS2(=O)=O)cc1 | 17.5%
84 | Cc1ccc2onc(CNC(=O)N3CCN(c4cccc(C(F)(F)F)c4)CC3)c2c1 | -14.5%
85 | CCOC(=O)c1ccc(-c2ccc(/C=C(\C#N)C(=O)Nc3ccc(C)cc3)o2)cc1 | -3.29%
86 | COc1cc(CN(C(=O)c2ccc(Cl)cc2)C2CCS(=O)(=O)C2)cc(OC)c1OC (stereo not given) | -12.8%
87 | Cc1ccc(S(=O)(=O)C(CNC(=O)C(=O)NCc2ccc(Cl)cc2)c2ccco2)cc1 (stereo not given) | 1.95%
88 | CCOc1ccc(-n2c(=O)c3c(C)c(C(=O)N(C)C)sc3n(Cc3cc(C)ccc3C)c2=O)cc1 | -1.12%
89 | COc1ccc(C(CNC(=O)c2ccc(-c3ccccc3Cl)o2)N2CCOCC2)cc1 (stereo not given) | active: 66.4%
90 | C/C=C(/C)C(=O)Nc1cccc(C2=NOC3(C2)C[C@@H](C(N)=O)N(C(=O)CC(c2ccccc2)c2ccccc2)C3)c1 (stereo not given in full) | active: 32%
91 | CCOc1ccc(-c2nc3cc(NC(=O)COc4cccc(C)c4)ccc3o2)cc1 | 6.65%
92 | O=c1c2sc3ccccc3c2n(Cc2ccc(F)cc2Cl)c(=O)n1Cc1ccccc1 | 1.46%
93 | CCOc1ccccc1CNC(=O)c1oc2ccc3c(c2c1C)C(=O)CC(C)(C)O3 | -3.08%
94 | CCN(CC)S(=O)(=O)c1cc(NC(=O)C(C)N2CCN(Cc3ccc4c(c3)OCO4)CC2)ccc1C (stereo not given) | active: 84.3%
95 | Cc1ccc(Cl)cc1Nc1nn2c(=O)c3ccc(C(=O)NC(C)c4ccccc4)cc3nc2s1 (stereo not given) | 10%
